Assay results as given in the supplement of paper PMC12217912.
This is one part of the list. Sequences were assembled here from the parent chain. Values near 0.05 are background.

B1: TEV protease; numbered along this chain (parent)
chain: MGESLFKGPRDYNPISSSICHLTNESDGHTTSLYGIGFGPFIITNKHLFRRNNGTLVVQSLHGVFKVKDTTTLQQHLVDGRDMIIIRMPKDFPPFPQKLKFREPQREERICLVTTNFQTKSMSSMVSDTSCTFPSGDGIFWKHWIQTKDGQCGSPLVSTRDGFIVGIHSASNFTNTNNYFTSVPKNFMELLTNQEAQQWVSGWRLNADSVLWGGHKVFMVKPEEPFQPVKEATQL

Variants of: B1
Test: raw area under fraction-flipped curve 0-4 h after induction (AUC4h, not background-subtracted), DNA-recorder readout of cleavage of the substrate (dimensionless); higher = more cleavage of the substrate by the protease variant
Details: temperature: 34 °C; time window: 0-4 h after rhamnose induction
Description: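 In vivo DNA recorder in E. coli TOP10(DE3) ΔrhaA at 34 °C. Each TEVp single-site mutant (parent TEVp 0) is paired with a single-site variant of the 7-mer TEVs (canonical ENLYFQ|S). The substrate sits between flexible linkers in a Bxb1-sfGFP-TEVs-SsrA fusion, so cleavage stabilises Bxb1 and speeds flipping of a recombination array, read by NGS. The value is the raw area under the fraction-flipped curve over 0-4 h after rhamnose induction (AUC4h), with ≥20 reads per time point. It is not background-subtracted; inactive controls average about 0.047.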
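Note: Bxb1 expression induced with 0.2% (w/v) L-rhamnose at OD600 near 0.5, cultures sampled hourly, flipped fraction per protease–substrate barcode pair counted by paired-end Illumina sequencing.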

| Variant | area with substrate ANLYFQS | area with substrate FNLYFQS | area with substrate GNLYFQS | area with substrate HNLYFQS | area with substrate INLYFQS | area with substrate KNLYFQS | area with substrate MNLYFQS | area with substrate SNLYFQS | area with substrate TNLYFQS | area with substrate WNLYFQS |
| --- | --- | --- | --- | --- | --- | --- | --- | --- | --- | --- |
| V210Y | 0.0507 | 0.0713 | 0.0519 | 0.0594 | 0.0639 | 0.0449 | 0.0646 | 0.0544 | 0.0415 | 0.0443 |
| I86N | 0.0363 | – | – | – | – | – | – | – | – | – |
| H62K | 0.0418 | – | – | 0.0619 | – | 0 | – | – | – | 0.0761 |
| S18N | 0.0566 | 0.0751 | – | 0.0471 | – | – | 0.0713 | – | 0.0667 | 0.0539 |
| T174A | 0.0658 | 0.0656 | 0.0679 | – | 0.0638 | 0.102 | – | – | – | 0.0652 |
| N193S | 0.0677 | 0.117 | – | – | 0.0554 | – | – | 0.0659 | – | 0.0643 |
| G202F | 0.0617 | 0.0657 | 0.05 | – | – | – | 0.0609 | – | 0.0522 | 0.067 |
| F101N | 0.0558 | 0.0361 | – | 0.0515 | 0.0401 | 0.0425 | 0.0478 | 0.049 | 0.0321 | 0.0501 |
| L5R | 0.0822 | – | 0.0818 | 0.0563 | – | – | – | 0.0787 | 0.0642 | – |
| V58P | 0.0298 | – | – | – | – | – | – | – | – | – |
| G202K | 0.054 | – | 0.0572 | – | – | 0.066 | – | – | – | – |
| D79N | 0.0757 | 0.057 | 0.0634 | 0.0521 | – | – | 0.0521 | 0.0683 | – | 0.0805 |
| F218R | 0.0584 | – | – | – | – | 0.0622 | – | – | 0.0599 | – |
| V165C | 0.0839 | 0.0525 | 0.0301 | – | 0.0592 | – | 0.0657 | – | 0.0636 | 0.0875 |
| V217W | 0.0765 | 0.0751 | – | 0.0652 | 0.055 | 0.0506 | – | – | – | 0.0599 |
| N186Y | 0.0687 | 0.0509 | – | – | 0.0466 | – | – | 0.0565 | 0.0619 | 0.0444 |
| P104N | – | – | – | 0.0456 | – | 0.0478 | – | – | 0.0465 | 0.0372 |

| Variant | area with substrate ANLYFQS | area with substrate FNLYFQS | area with substrate GNLYFQS | area with substrate HNLYFQS | area with substrate INLYFQS | area with substrate KNLYFQS | area with substrate MNLYFQS | area with substrate SNLYFQS | area with substrate TNLYFQS | area with substrate WNLYFQS |
| --- | --- | --- | --- | --- | --- | --- | --- | --- | --- | --- |
| G63W | – | 0.0594 | 0.0689 | 0.0586 | 0.0618 | 0.0725 | 0.0717 | 0.0646 | 0.0593 | 0.0554 |
| G150N | – | – | 0.0625 | 0.0606 | 0.0565 | 0.0621 | 0.0611 | 0.0407 | 0.0605 | 0.0594 |
| K216N | – | 0.0663 | – | 0.0664 | 0.0639 | – | – | – | 0.0736 | 0.0697 |
| G37Q | – | 0.0618 | 0.0571 | 0.0599 | 0.0536 | 0.0596 | – | 0.0626 | 0.0509 | 0.0483 |
| R160Q | – | – | 0.0703 | 0.0557 | 0.0942 | 0.0594 | 0.0614 | – | 0.0944 | 0.0664 |
| N206F | – | – | – | 0.058 | 0.0513 | 0.0719 | – | – | 0.0578 | 0.0509 |
| S32T | – | 0.0641 | 0.0714 | 0.062 | – | – | 0.0052 | – | 0.0669 | 0.0665 |
| G136V | – | 0.0293 | 0.0557 | 0.0585 | 0.0582 | – | 0.0546 | – | 0.0595 | – |
| P104K | – | 0.02 | – | – | – | 0.05 | – | – | – | – |
| M88N | – | – | 0.062 | 0.0452 | – | 0.0499 | – | 0.0372 | 0.0495 | 0.04 |
| I167D | – | 0.0527 | 0.0456 | 0.0457 | 0.0582 | 0.0504 | – | – | – | 0.0406 |
| L156N | – | – | 0.051 | 0.0499 | 0.0607 | – | – | 0.057 | 0.0455 | 0.0551 |
| L48D | – | 0.0517 | – | 0.0587 | – | 0.0623 | 0.0557 | 0.0597 | 0.0584 | 0.0611 |
| S16K | – | 0.0717 | 0.0785 | 0.0698 | 0.0895 | 0.0641 | – | 0.0602 | 0.0628 | 0.0728 |
| R102G | – | – | 0.0501 | 0.0478 | 0.0497 | – | 0.0528 | 0.0482 | 0.0443 | 0.0475 |
| T159C | – | – | – | – | 0.0424 | – | – | – | – | 0.039 |
| Q194G | – | – | – | 0.0607 | 0.0845 | 0.0809 | 0.0745 | 0.0383 | 0.0667 | 0.056 |

Same assay, conditions: temperature: 34 °C; time window: 0-4 h after rhamnose induction

| Variant | area with substrate YNLYFQS | area with substrate LNLYFQS | area with substrate NNLYFQS | area with substrate PNLYFQS | area with substrate VNLYFQS | area with substrate QNLYFQS | area with substrate DNLYFQS | area with substrate CNLYFQS | area with substrate RNLYFQS |
| --- | --- | --- | --- | --- | --- | --- | --- | --- | --- |
| V210Y | 0.0489 | – | – | – | – | – | – | – | – |
| H62K | – | 0.0714 | 0.0835 | 0.0989 | 0.0688 | – | – | – | – |
| S18N | 0.053 | 0.098 | 0.0832 | 0.12 | 0.0664 | 0.0626 | – | – | – |
| T174A | – | – | 0.0717 | 0.0754 | – | – | 0.0775 | – | – |
| N193S | 0.0599 | – | – | 0.0841 | – | – | – | – | – |
| G202F | 0.053 | 0.0629 | 0.0591 | – | – | 0.068 | – | – | – |
| F101N | 0.0428 | 0.0557 | 0.0422 | 0.0418 | – | 0.03 | – | – | – |
| L5R | 0.0627 | – | – | 0 | 0.0735 | – | – | – | – |
| V58P | – | – | – | 0.0264 | – | – | – | – | – |
| G202K | – | – | – | 0.0402 | – | – | – | – | – |
| D79N | 0.0657 | 0.0643 | – | 0.068 | – | – | – | – | – |
| F218R | – | – | 0.0518 | 0.0613 | – | – | – | – | – |
| V165C | 0.0699 | 0.062 | – | – | – | – | – | – | – |
| V217W | – | 0.0435 | 0.0649 | 0.0487 | – | – | – | – | – |
| N186Y | – | 0.0408 | – | – | 0.0765 | – | – | – | – |
| P104N | 0.0641 | – | – | 0.0504 | 0.0412 | 0.0328 | 0.0491 | 0.0467 | – |
| G63W | – | 0.0638 | 0.0655 | 0.0646 | – | 0.0699 | 0.0748 | 0.0658 | – |

| Variant | area with substrate YNLYFQS | area with substrate LNLYFQS | area with substrate NNLYFQS | area with substrate PNLYFQS | area with substrate VNLYFQS | area with substrate QNLYFQS | area with substrate DNLYFQS | area with substrate CNLYFQS | area with substrate RNLYFQS |
| --- | --- | --- | --- | --- | --- | --- | --- | --- | --- |
| G150N | 0.0525 | 0.0526 | 0.0636 | 0.0514 | – | 0.0686 | 0.0639 | 0.0568 | – |
| K216N | 0.0694 | 0.0625 | – | 0.0614 | – | – | – | 0.0733 | 0.0597 |
| G37Q | – | – | 0.0557 | 0.0578 | 0.0499 | – | 0.0477 | 0.0607 | – |
| R160Q | 0.0712 | 0.0589 | – | 0.0651 | 0.0664 | – | 0.0706 | 0.0722 | 0.0567 |
| N206F | 0.0391 | 0.0507 | 0.0645 | 0.064 | – | – | 0.0709 | 0.0636 | – |
| S32T | 0.0522 | 0.0731 | – | 0.0663 | – | – | 0.0802 | 0.0675 | 0.0754 |
| G136V | – | 0.067 | 0.0563 | 0.0633 | 0.0618 | – | 0.0938 | 0.0664 | – |
| P104K | – | 0.0549 | – | – | – | 0.0592 | – | 0.0349 | – |
| M88N | 0.0526 | 0.04 | 0.0509 | 0.0612 | 0.0548 | – | 0.0536 | 0.0551 | – |
| I167D | – | 0.0562 | – | – | – | – | 0.0508 | 0.04 | – |
| L156N | 0.0364 | 0.0676 | 0.0517 | 0.0793 | 0.058 | – | 0.051 | 0.053 | – |
| L48D | 0.0519 | 0.0608 | 0.0408 | 0.0635 | 0.0659 | – | – | 0.0583 | – |
| S16K | 0.063 | 0.0552 | 0.0676 | 0.0579 | 0.0592 | – | 0.0607 | 0.0622 | 0.067 |
| R102G | 0.0543 | 0.0293 | 0.0454 | 0.0557 | – | – | 0.0363 | 0.0614 | – |
| T159C | – | – | – | – | – | – | – | 0.0629 | – |
| Q194G | – | – | – | 0.0906 | 0.0762 | – | 0.0664 | 0.0633 | – |
